From PubChem BioAssay AID1345082 (National Center for Advancing Translational Sciences (NCATS), 2018)
The campaign covered roughly 94,000 compounds. About 4,000 (4.3%) were called active. This list was built around the results that the source calls inconclusive (neither active nor inactive); the mix of calls is not that of the screen. The call rests on the fitted dose curve; in most records, active means well fitted inhibition curve with a large enough effect; inconclusive means small, poorly fitted or top-dose-only effect; inactive means no such curve, though single readings can be large or run the other way. Potencies beside an inconclusive call are fits to weak or partial responses and may not hold up.

experiment: Cytotoxic Profiling in NIH 3T3 Cell Line of Diverse Libraries Using Quantitative High-Throughput Screening; conditions: NIH 3T3 viability, CellTiter-Glo ATP luminescence, 48-72 h; activity change, negative = cytotoxicity: at 96.7 µM (top of the series) unless noted; series mostly up to 96.7 µM; further: nearly all actives have a fitted effect of over 55% in size
In short: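 ATP-dependent luminescence (CellTiter-Glo) served as the viability signal for NIH 3T3 cells treated with compound for 48 or 72 hr at 37 °C.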
On the % scale 0 is the no-effect control and ±100 the full control effect; potency means the concentration at half of the fitted maximal effect; tags describe the fitted curve by direction and shape.

Compound | Potency | activity change, negative = cytotoxicity | outcome
CCC#CCN1CCc2ccccc2N(CC(O)COc2ccc(OC)cc2)CCC1=O (centres undefined) | inconclusive: 11.2 µM [inhibitor, partial curve, poor fit] | – | –
CCc1nc2c(c(-c3ccc(O)cc3)n1)CCN(C(=O)Nc1ccc(Cl)cc1)CC2 | inconclusive: 50.1 µM [inhibitor, partial curve, poor fit] | – | –
CCOc1ccccc1CNC(=O)C1CCN(c2cc(C(F)(F)F)nc(C)n2)CC1 | inconclusive: 50.1 µM [inhibitor, partial curve, poor fit] | – | –
COCCCNC(=O)CCCN1C(=O)COc2ccc(C(=O)COc3ccc(C)c(C)c3)cc21 | inconclusive: 39.8 µM [inhibitor, partial curve] | – | –
COc1ccc(-c2ccccc2)cc1N1C(=O)[C@@H]2C[C@H]1CN2C(=O)C1(N)CC1 | inconclusive: 39.8 µM [inhibitor, full curve, poor fit] | – | –
CC(=O)N1CCN([C@H]2[C@@H]3OC[C@@H](O3)[C@@H](NC(=O)Nc3ccc(F)cc3)[C@@H]2O)CC1 | – | inactive: -18.5% [at 174 µM] | –
COc1cccc(CCC(=O)N2CCCC(Nc3ccc(F)cc3)C2)c1 (centres undefined) | – | inactive: -25% | –
CC(C)N[C@H]1C[C@@H](Cc2cc(COc3ccccc3)on2)C1(C)C | active: 50.1 µM | – | –
CCc1noc(CC2CCOC3(CCN(S(=O)(=O)c4cc(F)ccc4C)CC3)C2)n1 (centres undefined) | inconclusive: 44.7 µM [inhibitor, partial curve, poor fit] | – | –
O=C(c1ccc(F)cc1)N1CCC2(CC1)CC(N(Cc1ccc(F)cc1)C1CC1)CCO2 (centres undefined) | inconclusive: 31.6 µM [inhibitor, full curve, poor fit] | – | –
O=C(NC1CCN(Cc2cccc(-c3cccs3)c2)CC1)c1cccnc1 | inconclusive: 50.1 µM [inhibitor, partial curve, poor fit] | – | –
Cc1ccc(NC(=O)Cn2c(-c3ccc(Cl)cc3)nc(C)c(CCO)c2=O)cc1 | inconclusive: 12.6 µM [inhibitor, full curve] | – | –
CC1(c2ccccc2)N(Cc2ccccc2C#N)C(=O)OC12CCN(C(=O)Cc1ccc3c(c1)OCO3)CC2 (centres undefined) | inconclusive: 2.82 µM [inhibitor, full curve, poor fit] | – | –
Cn1nc(C2CCNCC2)n(-c2ccccc2)c1=O | – | – | inactive
O=C(NCc1ccc(F)c(F)c1)c1ccc2nnc(-c3cc[nH]c3)n2c1 | inconclusive: 44.7 µM [inhibitor, partial curve, poor fit] | – | –
O=C1NCN(Cc2ccc(Cl)cc2)C12CCN(Cc1ccsc1)CC2 | inconclusive: 28.2 µM [inhibitor, full curve, poor fit] | – | –
COCc1ccc2c(c1)c(OC(C)(C)C(=O)NC1CC1)nn2CCC(C)C | inconclusive: 44.7 µM [inhibitor, partial curve, poor fit] | – | –
Cn1cc(-c2cc3c(ccn3Cc3ccncc3)c(N3CCOCC3)n2)cn1 | inconclusive: 22.4 µM [inhibitor, full curve, poor fit] | – | –
COc1ccccc1Nc1ccnc(N2CCN(C(=O)c3ccc(F)cc3)CC2)n1 | active: 22.4 µM | – | –
COCc1ccc2c(c1)c(OC(C)(C)C(=O)NCCN(C)C)nn2Cc1ccccc1 | active: 89.1 µM | – | –

Compound | Potency | activity change, negative = cytotoxicity | outcome
Cc1nc(CN2C(=O)OC3(CCN(C(=O)Cc4ccccn4)CC3)C2(C)c2ccccc2)cs1 (centres undefined) | inconclusive: 50.1 µM [inhibitor, partial curve, poor fit] | – | –
Cc1noc(C)c1-c1cnc(Nc2ccc(F)cc2)c2c1CCO2 | inconclusive: 17.8 µM [inhibitor, partial curve, poor fit] | – | –
COc1cccc(-c2cc(C(=O)NCC(F)(F)F)c3cnn(C)c3n2)c1 | inconclusive: 79.4 µM [inhibitor, partial curve, poor fit] | – | –
O=C(CCCc1ccccc1)N1CCCC1c1noc(COc2ccc(F)cc2)n1 (centres undefined) | inconclusive: 44.7 µM [inhibitor, partial curve, poor fit] | – | –
Cc1cccc(NC(=O)N2CC(Oc3ccc(-c4nc(-c5ccccc5)no4)cc3)C2)c1 | inconclusive: 50.1 µM [inhibitor, partial curve, poor fit] | – | –
Cc1ccc(NC(=O)NC2CCN(C(=O)N3CC4CC(C3)[C@H]3CCCC(=O)N3C4)CC2)cc1C (some centres undefined) | – | inactive: -26.9% | –
O=C(NC1CCCCC1)c1nc2sccn2c1-c1ccncc1 | – | inactive: -26.2% | –
Cc1ccc(OCc2nc(C3CCCCN3C(=O)C3CC3)no2)cc1 (centres undefined) | inconclusive: 44.7 µM [inhibitor, partial curve, poor fit] | – | –
CSc1ccc(-c2cccc(CN3CCC(NC(=O)Nc4ccc(Cl)cc4)CC3)c2)cc1 | active: 12.6 µM | – | –
CCCNC(=O)c1c(C)oc2ccn(Cc3ccc(F)cc3)c(=O)c12 | inconclusive: 44.7 µM [inhibitor, partial curve, poor fit] | – | –
O=C1COc2ccc(NCc3cccs3)nc2CN1CCOc1ccccc1 | inconclusive: 100 µM [inhibitor, partial curve] | – | –
Cc1ccc(Nc2ccnc(N3CCC(C(=O)N4CCN(C)CC4)CC3)n2)cc1 | inconclusive: 50.1 µM [inhibitor, partial curve, poor fit] | – | –
COc1cccc(CC(=O)N2CCN(c3cc(-c4cccs4)[nH]n3)CC2)c1 | inconclusive: 39.8 µM [inhibitor, partial curve] | – | –
COc1ccc2c(c1)c(CN1CCCCCCN(C)C(=O)[C@@H]3CCC[C@@H]31)cn2C | active: 28.2 µM | – | –
O=C(NCCCc1ccccc1)c1nc2sccn2c1-c1ccc(F)cc1 | inconclusive: 50.1 µM [inhibitor, partial curve] | – | –
CCS[C@H]1CCN2C(=O)c3cc(-c4ccccc4)ccc3NC(=O)[C@H]12 | – | inactive: -29.4% [at 174 µM] | –
Cc1noc(C)c1Cn1cc2c3c(cccc31)[C@H](CC(C)C)N[C@H](C(=O)NCc1ccco1)C2 | active: 20 µM | – | –
COc1ccc(C(=O)N2CCCC3(C2)NC(=O)N(Cc2cccc(Cl)c2)C3=O)cc1F (centres undefined) | – | inactive: -20.7% | –
Cc1nnc2ccc(N3CCCC(NC(=O)c4ccccc4Cl)C3)nn12 (centres undefined) | inconclusive: 20 µM [inhibitor, partial curve, poor fit] | – | –
